Results on one substance are retold here after article PMC8413330.

By UniProt entry, the sequences of proteins in these tests, tags left out.
UniProt P51608: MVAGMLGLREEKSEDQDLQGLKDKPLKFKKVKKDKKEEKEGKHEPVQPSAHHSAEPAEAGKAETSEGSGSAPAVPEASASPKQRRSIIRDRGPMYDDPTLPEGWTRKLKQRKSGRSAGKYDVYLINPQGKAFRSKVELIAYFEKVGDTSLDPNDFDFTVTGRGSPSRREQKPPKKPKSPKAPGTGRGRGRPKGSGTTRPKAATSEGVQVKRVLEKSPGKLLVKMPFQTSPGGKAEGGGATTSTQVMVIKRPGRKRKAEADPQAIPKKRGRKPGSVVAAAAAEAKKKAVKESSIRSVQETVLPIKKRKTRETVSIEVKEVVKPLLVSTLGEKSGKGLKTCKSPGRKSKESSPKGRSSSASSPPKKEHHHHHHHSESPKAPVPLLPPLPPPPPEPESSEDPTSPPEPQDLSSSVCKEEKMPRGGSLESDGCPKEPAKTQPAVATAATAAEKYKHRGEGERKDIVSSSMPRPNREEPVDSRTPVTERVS

Results are given in words; binding and its absence hold for the method and conditions named. In cells and extracts the contact can be indirect. Some results given as binding are weak or reduced against the parent protein; the word gives no strength. Tags and fused reporters may be left off the sequences shown.

In this assay the target is T1, HA-CXXC5 (UniProt Q7LFL8).
T1 sequence: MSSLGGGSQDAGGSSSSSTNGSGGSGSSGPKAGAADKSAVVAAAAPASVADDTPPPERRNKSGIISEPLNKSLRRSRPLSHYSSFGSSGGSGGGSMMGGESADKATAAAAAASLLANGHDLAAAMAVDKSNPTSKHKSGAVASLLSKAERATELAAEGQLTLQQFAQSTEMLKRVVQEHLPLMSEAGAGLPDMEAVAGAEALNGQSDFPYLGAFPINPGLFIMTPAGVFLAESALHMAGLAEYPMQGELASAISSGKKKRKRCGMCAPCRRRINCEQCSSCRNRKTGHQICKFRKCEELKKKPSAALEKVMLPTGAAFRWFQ
Put plainly: co-IP; nuclear extracts (500 ug, NE-PER) of transiently co-transfected HEK293 cells (48 h); HA antibody or isotype-matched IgG with protein A and G magnetic beads at 4 °C; washes in 150 mM NaCl, 10 mM HEPES pH 7.5, 10 mM MgCl2, 0.5% Igepal; WB with the Flag or HA antibody.

3F-MeCP2 (from UniProt P51608 1-486): the binding entry was “binds”.
